In PMC5106031:
These are yes or no findings as the source states them, for the method shown. In cells and extracts the contact can be indirect. Some binding calls cover weakened binding; strength is not graded here.

Protein sequences, listed by entry. Tags and fused reporters are not part of them. Residues count along the entry.
UniProt P56817, residues 46-501: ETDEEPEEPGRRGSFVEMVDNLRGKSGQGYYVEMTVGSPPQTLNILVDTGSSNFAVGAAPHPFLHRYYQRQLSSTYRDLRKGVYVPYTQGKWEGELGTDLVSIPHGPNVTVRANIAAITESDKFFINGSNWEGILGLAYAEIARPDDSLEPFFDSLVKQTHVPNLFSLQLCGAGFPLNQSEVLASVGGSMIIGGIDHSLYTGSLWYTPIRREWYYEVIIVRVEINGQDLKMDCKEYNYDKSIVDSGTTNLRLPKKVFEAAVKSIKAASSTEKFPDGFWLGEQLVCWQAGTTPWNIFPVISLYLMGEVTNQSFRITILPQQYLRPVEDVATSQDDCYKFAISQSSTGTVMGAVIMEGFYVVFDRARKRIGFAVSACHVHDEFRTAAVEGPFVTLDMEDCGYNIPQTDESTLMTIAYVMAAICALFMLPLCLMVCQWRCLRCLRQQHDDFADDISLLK

Assays:
[1] = target: Flag-tagged A2AR (adenosine A2A receptor) (UniProt P29274); experiment: co-IP; HEK293T cells over-expressing PS1, NCT, APH1aL and Pen2 without or with Flag-A2AR; lysed in IP buffer (50 mM HEPES pH 7.4, 150 mM NaCl, 10% glycerol) with 1% CHAPSO; anti-Flag M2 resin, 4°C, 4 h; Western blot
[2] = target: Flag-tagged A2AR (adenosine A2A receptor) (UniProt P29274); experiment: co-IP; HEK293T cells transfected with Flag-A2AR and the partner; lysed in IP buffer (50 mM HEPES pH 7.4, 150 mM NaCl, 10% glycerol) with 1% Triton X-100, which dissociates the γ-secretase complex; anti-Flag M2 resin, 4°C, 4 h; Western blot; in Fig 5E cells without or with 30 nM Istradefylline
A2AR-CFP = A2AR-CFP (UniProt P29274); experiment: FRET or BRET; acceptor photobleaching FRET in transfected HEK293 cells fixed with 4% PFA; CFP donor, YFP acceptor; confocal microscope; in Fig 5 cells treated with Istradefylline (30 nM, 0-60 min; or 10-100 nM, 30 min) or CGS 21680 HCl
[3] = target: Flag-tagged A2AR (adenosine A2A receptor) (UniProt P29274); experiment: co-IP; HEK293T cells over-expressing BACE1 without or with Flag-A2AR (Fig 4F, lanes 5 and 6); anti-Flag M2 resin; detergent of these lanes not told (1% CHAPSO or 1% Triton X-100)

Row | Substance | binding [1] | binding [2] | binding (A2AR-CFP) | other results
1 | nicastrin (NCT) (from UniProt Q92542 34-709) | binds | binds | – | –
2 | APH1aL (anterior pharynx defective 1a, long form) (from UniProt Q96BI3 1-265) | binds | binds | – | –
3 | BACE1-YFP (from UniProt P56817 46-501) (enzyme) | – | – | no binding | –
4 | APH1aL-YFP (from UniProt Q96BI3 1-265) | – | – | binds | –
5 | HA-C99 (C99 fragment of APP, HA-tagged) (from UniProt P05067 672-770) (domain or fragment) | – | binds weakly | – | –
6 | BACE1 (from UniProt P56817 46-501) (enzyme) | – | – | – | binding [3]: no binding
